Measurements reported in ChEMBL document CHEMBL4888484, “Replenishing the malaria drug discovery pipeline: Screening and hit evaluation of the MMV Hit Generation Library 1 (HGL1) against asexual blood stage Plasmodium falciparum ,using a nano luciferase reporter read-out” (2022).
Screen size: about 150,000 compounds; about 540 (0.36%) showed an effect of 50% or more. Some of the results follow.

Each compound was assayed on Plasmodium falciparum (assay: Primary screen in NF54 nanoGlo assay, in single point, at 2uM, 72h; a lower Z score goes with more inhibition). Details: timepoint 72 hour.
Format: functional, Erythrocyte

SMILES	% Inhibition	Z score
Cc1cc(NC(=O)CNC2(c3cccc(Cl)c3)CC2)on1	4%	-0.52
Cc1ccc(C)n1CCN1CCN(C(=O)C[C@@H]2N=C(O)c3ccccc3NC2=O)CC1	-3%	0.43
Cc1noc(COCC(=O)Nc2cc(-c3cccc(F)c3F)n[nH]2)n1	5%	-0.53
O=C(OCCF)N1CCOc2c1cccc2C(F)(F)F	-1%	0.14
O=S(=O)(c1ccc2c(c1)CCC2)N1CCC[C@H](Cn2c(C3CC3)nc3cccnc32)C1	-4%	0.56
Cc1ccc(S(=O)(=O)/N=C(\CN2CCCC2)N2CCCCC2)cc1	-18%	2.43
O=C(CC1CC1)N[C@@H](Cn1nccn1)c1ccccc1	-7%	1.21
CCS(=O)(=O)CCNC(=O)c1nc(C)sc1C	-7%	0.6
CCNc1ccnc(N2CCN(CC(=O)OC)C(=O)C2)n1	-3%	0.57
CCc1cc(N2CCC[C@H]2C(=O)N(C)C)nc(-c2ccncc2)n1	17%	-1.52
COc1ccc(N[C@H]2CCCN(c3ncncc3C(C)C)C2)cc1OC	2%	-0.36
CCC1CCN(C(=O)c2sc3ncccc3c2N)CC1	-7%	0.79
N#Cc1cnc2c(Cl)cccc2c1NCC1(CO)CCOCC1	-1%	0.06
CCC1CN(Cc2csc(COc3ccc(Cl)cc3)n2)CCC1N (stereo not given)	-3%	0.27
O=C(Cc1noc2ccccc12)Nc1ccc(-c2cc[nH]n2)cc1	-7%	1.06
Cc1nc2cc(N[C@@H](C(=O)N3CCCCC3)c3ccccc3)ccc2o1	-36%	4.27
O=C1NC2(CCCCC2)C(=O)N1Cc1nc2ccccc2o1	-8%	1.52
C[C@H]1COCCN1C(=O)c1nc(NCc2ccco2)ncc1Cl	31%	-2.76
C[C@@H](C(=O)Nc1ccccc1NCC1CCCCC1)n1cncn1	-18%	2.03
O=C(NCCn1ccc(-c2cccs2)n1)c1ccc(S(=O)(=O)N2CCOCC2)cc1	-22%	2.79
NC(=O)COc1ccc([C@H]2CC(=O)Nc3cccc4c3c2cn4Cc2cccc(F)c2)cc1	-10%	1.28
O=C(c1ccno1)N1CCOC[C@H](Oc2cnccn2)C1	20%	-2.38

SMILES	% Inhibition	Z score
CC1CN(C(=O)Nc2ccccc2OC2CCOC2)C(C)CN1Cc1ccccc1 (stereo not given)	2%	-0.16
CN(C)c1ccc(CN2CC[C@H](c3nnc(-c4ccco4)o3)C2)cc1	-12%	1.96
COc1cccc([C@H]2C[C@H](N(C)S(=O)(=O)CC(C)(C)OC)C2)c1	-7%	0.68
CCOc1ccc(NC(=O)C2[C@H]3C=C[C@@]4(O3)C(C(=O)NC3CCCCC3)N(CCc3ccccc3)C(=O)[C@@H]24)cc1 (stereo not given in full)	16%	-2.43
Cc1nnsc1C(=O)Oc1ccc(C(C)C)cc1	-13%	1.12
Cc1cc(C)cc(NC(=O)CC(=O)N[C@@H]2C[C@H]3C(=O)N(C)CC(=O)N3C2)c1	-4%	0.58
O=C1CCNC(=O)N1Cc1ccc(-n2cccn2)cc1	-9%	1.41
Cc1ccc(OCC(=O)Nc2noc(-c3ccc(F)cc3)n2)cc1	-8%	1.23
Cc1nc(CCNC(=O)C[C@H](C)c2ccc(F)cc2F)cs1	-4%	0.6
CCCCOCCN(CC#N)c1ccc(Br)cc1	-10%	1.24
CC(C)C[C@H](NC(=O)OC(C)(C)C)c1nnc(S(=O)(=O)Cc2ccc(Cl)cc2)o1	-2%	0.2
O=C(Cc1ccc(Cl)cc1)OCc1nnc(-c2ccccc2)o1	-2%	0.29
c1cc2c3c(cccc3c1)NC1(CCCCC1)N2	-21%	2.44
CC[C@H]1CN(C2=Nc3c(cnn3C(C)(C)C)CN2)CCO1	-12%	1.14
CN1CC[C@@]2(CCC1=O)CN(S(=O)(=O)c1cccc(C#N)c1)CCN2C	11%	-1.36
CCC(C)(CC)c1noc(C[C@H]2CCC(=O)NC2)n1	-3%	0.5
COc1ccsc1C(=O)NC1CCCC1C(N)=O (stereo not given)	5%	-0.48
CN1C(=O)c2ccc(S(=O)(=O)N[C@H]3CCC[C@@H]3O)cc2C1=O	26%	-2.98
COc1cc2ccccc2cc1C(=O)Nc1cc(-c2nc3ccccc3o2)ccc1C	-1%	0.14
CCN1CCN(C(=O)c2cccc(Nc3c(Oc4ccc5c(c4)CCC5)cnn(-c4cccc(Cl)c4)c3=O)c2)CC1	-14%	1.74
Cc1nc(-c2cc(-c3cnn(C)c3C)on2)n([C@H]2CCS(=O)(=O)C2)n1	-12%	1.83
CC1(NC(=O)CC2(CS(C)(=O)=O)CC2)CCN(C(=O)OC(C)(C)C)CC1	-13%	1.52

SMILES	% Inhibition	Z score
Cc1nn(-c2nc3ccccc3s2)c2c1[C@@H](c1ccc(F)cc1F)CC(=O)N2	-12%	1.64
COc1cccc(-n2c(C)cc(C(=O)N3CCC(NC(N)=O)CC3)c2C)c1	-3%	0.33
O=C(NCC1CCCCC1)c1cccs1	0%	0.02
C=C(C)[C@H](NC(N)=O)c1ccc(F)c(F)c1	-7%	0.63
CC(C)CN1CCCn2nc(CNC(=O)c3cnn4ccn(C)c34)cc2C1	-6%	0.68
COc1cccc(NS(C)(=O)=O)c1	8%	-0.95
C[C@H]1CN(c2cccc(Cl)c2)C(=O)CN1Cc1nccn1C	-7%	0.89
O=C(NCCOc1ccccc1)N1CCN(c2nccs2)CC1	5%	-0.95
C[C@@H](c1ccon1)N(C)C(=O)c1ccc(Cl)cc1OCCCN	-10%	1.52
CO[C@H]1C[C@@H](CNC(=O)N[C@H](C)c2ccc(F)cc2)C1	-16%	1.7
CCN1C[C@H](CN(C)CC(=O)Nc2cc(OC)cc(OC)c2)Oc2ccccc21	-4%	0.49
CN1C(=O)C[C@H](C(=O)NCC(C)(C)c2cccc(Cl)c2)[C@H]1c1nccn1C	1%	-0.24
Cc1ccc(CN(C)C)cc1NC(=O)c1ccc2nncn2c1	-5%	0.68
O=C(c1ccc(Cl)cc1OC1CCN(Cc2ccc(CO)o2)CC1)N1CCCCC1	17%	-2.29
CS(=O)(=O)N1CCN(c2ccc3cc[nH]c3n2)CC1	-1%	0.18
CC(=O)N1C[C@@H]2OCC(=O)N(Cc3ccccc3)[C@@H]2C1	3%	-0.4
CCOc1ccc2c(C)c(C(=O)N3CC[C@](C)(O)[C@H](C)C3)oc2c1OCC	-2%	0.22
CCn1cnnc1CNS(=O)(=O)[C@H]1C[C@@H]1c1ccccc1	-4%	0.53
CC(=O)C(C(C)=O)C(NC(=O)c1cccnc1)(C(F)(F)F)C(F)(F)F	-9%	1.39
O=S(=O)(CCc1ccccc1)N1CC[C@H](O)C1	4%	-0.66
CCCS(=O)(=O)N(C)c1ccc(C)c(N(C)C)c1	4%	-0.52
O=C1CN(C/C=C/c2ccccc2)CCN1c1ccc2cn[nH]c2c1	2%	-0.21

SMILES	% Inhibition	Z score
Cc1cc(C(=O)N[C@H]2CC[C@H](Oc3ncccn3)CC2)no1	-7%	1.23
CN(CC(=O)NC1CCS(=O)(=O)C1)C1CCCc2ccc(F)cc21 (stereo not given)	-14%	1.88
O=C1[C@@H]2CCCN2C(=O)N1Cc1ccn(-c2ccc(F)cc2F)n1	-15%	1.54
O=C(O)c1cccnc1CN1CCc2ccc(C(F)(F)F)cc2C1	-1%	0.1
CN(CC(=O)NC1CCCCC1)C1CCCCC1	-12%	1.65
O=C(Nc1cnccn1)C1CC2CCC1O2 (stereo not given)	-3%	0.24
CC(C)(C)c1ccc(OS(=O)(=O)c2c[nH]c(C(=O)N3CCCC3)c2)cc1	-13%	1.68
Cc1nc(CCc2cn[nH]c2)n(-c2ccc(F)c(F)c2)n1	1%	-0.18
Cn1cccc1CNc1nnc(CC2CCCC2)o1	-9%	1.3
Cc1nnc(CN[C@@H](C)c2ccc(Cl)s2)s1	-13%	1.31
CC[C@@]1(O)COC2(CN(C(=O)c3noc(C)c3Cn3cccn3)C2)C1	-11%	1.67
CN(C[C@H]1CCCOC1)C(=O)Nc1nsc2ccccc12	-10%	1.43
Cc1n[nH]c(C)c1[C@H](C)N(C)Cc1cn(C)nc1-c1ccc2c(c1)OCCO2	-2%	0.35
CCn1ccnc1NC(=O)C1CC(F)(F)C1	-3%	0.36
C[C@@H](c1ccco1)N(C)C(=O)NCCc1csc(N2CCCC2)n1	-6%	0.59
CC(C)c1nnc(CNC2(c3noc(C4CC4)n3)CCCC2)o1	-3%	0.33
O=C(c1cc(C2CC2)on1)N1CCc2ccccc2C1	-6%	0.68
Cc1cnc(NC(=O)c2c(C)c(C)n[nH]c2=O)s1	2%	-0.35
Cc1ccc(C(F)(F)C(=O)NCCC(=O)NS(C)(=O)=O)cc1	57%	-7.27
